Experimental data: the supplement of paper PMC11417369
± gives the standard deviation of the averaged measurements. The list shows a part of the results.

tested on: PfAP2-G AP2 domain (GST-tagged); test: gcPBM binding intensity (ln(normalized median fluorescence intensity)); higher = stronger DNA binding
How it was run: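 DNA-binding domains from P. falciparum, fused to GST and produced in E. coli, were put on an Agilent 4 × 180k double-stranded probe array for 1 h in 1× PBS holding 1% milk, 0.2 mg/ml BSA, 0.5% salmon testes DNA and 0.03% Triton X-100. Probes were primer-extended, 36 bp long and drawn from intergenic genomic regions, with negative controls included. After Alexa488 anti-GST antibody detection and a 488 nm scan, binding intensity was set as the highest Masliner-normalised natural-log median intensity across replicate spots of either probe orientation.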

| Sequence | gcPBM binding intensity (ln) |
| --- | --- |
| GTGAAGTTCAAAATATGTACTTATGTATGTATTTTT [XGTACX_site165] | 11.2 ± 0.86 |
| TTATGTTTCATAAAAAATTAATCAAACATATATAAG [CACACA_negctrl_site666] | 9.635 ± 0.021 |
| TTATGGATGGACAATAATAAAATTTTTACTTTTATT [CACACA_negctrl_site908] | 10.4 ± 0.24 |
| AAAAAAAAGAATTAGGCACACAATTTTAATATAGGA [CACACA_site1522] | 10.04 ± 0.042 |
| GCATACATCAAGCACACACACACACGCACACGCACA [CACACA_site6311] | 10.3 ± 0.32 |
| ACTACGAATGGTAGAGTGCAGTCTGGAGAAGAGTAC [GTGCAC_site9685] | 10.8 ± 0.51 |
| AAAAAAAAAATTATATATATATCCCTTATTTTTTCT [TGCATGCA_negctrl_site151] | 9.62 ± 0.014 |
| CATACACAGAAACACACACACATATATACATATATA [CACACA_site1094] | 10 ± 0.24 |
| TCATATATATTGAAATGTACTTATTTTTTCCTCATA [XGTACX_site6526] | 11.3 ± 0.76 |
| CCTTAAATAATATATTCACACAATATAACAAAAATT [CACACA_site4892] | 9.94 ± 0.085 |
| TGGTATATAAAACACACACACATATGTATATATATA [CACACA_site926] | 10.1 ± 0.28 |
| TATACATAGAAACACACACACATAAATAAATATATA [CACACA_site1342] | 10 ± 0.11 |
| AAATTACTGTAAAAAAGTACAGAAGTTCTTATTTTT [XGTACX_site7416] | 11.5 ± 0.93 |
| GTTCATATAATAAAATGTACATAATATATTATATAT [XGTACX_site7623] | 11 ± 0.56 |
| AGTTTAATTTTGTATACACACATTTGAATTATTAAT [CACACA_site7625] | 10.15 ± 0.035 |
| AACAAATATGATTTTTTATATATTTTTAAATTTGGT [GTGCAC_negctrl_site189] | 9.55 ± 0.23 |
| TATATCTATTTCAAATGTACTTATATGATTCTTATA [XGTACX_site6277] | 11.1 ± 0.71 |
| AGCTACAAAAATTAATATATATATGTATAGTTATAC [TGCATGCA_negctrl_site531] | 9.69 ± 0.13 |
| CTTAATATGGATATTGCATGTAGAACATGAACAATA [TGCATGCA_site760] | 10.04 ± 0.049 |
| TAAATATTATATTTATGTACATAAGTTTTTTTTAAT [XGTACX_site3559] | 11.2 ± 0.54 |
| TTATGCTCAAAGAAAAGTACATAAATAAAAGTATAT [XGTACX_site7365] | 11.4 ± 0.86 |
| TTAACAAATAAATGCACACATATATATAAATAATAT [CACACA_site28] | 9.97 ± 0.17 |

| Sequence | gcPBM binding intensity (ln) |
| --- | --- |
| GTATTATATTTTAATACACACCCAAATATTAAAAAG [CACACA_site8968] | 10.3 ± 0.13 |
| TGCCATCATATCATAGGTACACAAACATATAAAGAA [XGTACX_site4137] | 11.2 ± 0.73 |
| AAATGTTCAGAAACTATTATAAAAATGGAATAATAT [CACACA_negctrl_site1544] | 10 ± 0.12 |
| TATATGTAGATTAAACGTACTTACAACGGAATTATC [XGTACX_site3036] | 10.9 ± 0.51 |
| TTAATACTTTTTTCTGTACACACTTGATTTACTATA [CACACA_site2799] | 11.5 ± 0.81 |
| GAAGGAAAAGATACGATAAAATAAGATATTAATTTA [GTGCAC_negctrl_site419] | 9.71 |
| ATATATATATATATATGTACATAATGCATATAATAT [XGTACX_site6142] | 11.1 ± 0.52 |
| TAAACACCCATACATACACACATACATACACCCATA [CACACA_site5125] | 10.2 ± 0.27 |
| TTCTTCAATATATTCTTACACACTTAAAAAAAAAAA [CACACA_site228] | 9.99 ± 0.45 |
| TTTGTTATATTTAATACACACATATTATAAACACAT [CACACA_site7703] | 10.1 ± 0.12 |
| TATGAAAAGTAAAGTACACACAGGAAAAAAAAAAAA [CACACA_site1749] | 11.4 ± 1.1 |
| ATAAATAAAGGACACACACACACACTAATAAAAAAA [CACACA_site8840] | 11.2 ± 0.82 |
| TATATAATATATTTATGTACTCACAATGGGGTCTAC [XGTACX_site2691] | 11.4 ± 0.85 |
| GTATATAAATAAATAGTGCATTATTAAAAATAATGT | 10.1 ± 0.29 |
| TTTTTTTTTTTTTATTGTACATACTTTTAAATATAT [XGTACX_site4303] | 11.1 ± 0.95 |
| ATATATTTATATTTTTGTACCCAAAATTGTTTGATG [XGTACX_site3581] | 11.2 ± 0.72 |
| ATTGAGGCTGGTTATATAATAATTTTATTATTTTAG [GTGCAC_negctrl_site409] | 9.97 ± 0.11 |
| TAAAAGTTGAAGCACACACACAAAAGAAATACAATA [CACACA_site6649] | 10.3 ± 0.22 |
| GTATACAACATATGAACACACAAAATATTTTTTTTT [CACACA_site2928] | 9.97 ± 0.071 |
| TATCTCCACAAAAGATGTACTCATATTAATTTATAA [XGTACX_site3535] | 11.4 ± 0.84 |
| TTAAAGCTTGCATATACACACATACATAAATTCATA [CACACA_site7208] | 10 ± 0.18 |
| TACATACACAAATACACACACAAATACATACCCAAA [CACACA_site4550] | 10.3 ± 0.28 |

| Sequence | gcPBM binding intensity (ln) |
| --- | --- |
| TTTTTTCTTTTTTTTTTTTTTTTCTTTTTTTTTTTT [GTGCAC_negctrl_site196] | 9.85 ± 0.099 |
| TACGTGAAATTATATACACACATAAATATGGGTGTA [CACACA_site5687] | 9.805 ± 0.078 |
| AAAATATATTAAGGCACACACATACAGATATATATA [CACACA_site5951] | 10.08 ± 0.042 |
| GGTATACTCAAGTATACACACATATATATATATATA [CACACA_site5746] | 10.6 ± 0.28 |
| GAAATTTTATTACTTTTACACACCTATATATTATTC [CACACA_site9076] | 9.97 ± 0.11 |
| ATATTATATATACACGCACACACACTAATATATATA [CACACA_site9092] | 10.3 ± 0.28 |
| TACAAAAAAAAAGAACGTACAAAAAATTTCAAAAAT [XGTACX_site5860] | 11.1 ± 0.54 |
| TATGTATATATATTAACACACAAAAAAAAAAAAAAA [CACACA_site1812] | 9.79 ± 0.52 |
| TTAAACTATACCAAAACACACATACAAAATATAAAA [CACACA_site5494] | 10.07 ± 0.014 |
| AACAATATGGATGTATGTACACATATAGAACGTTAT [XGTACX_site7142] | 11.4 ± 0.7 |
| TATGCATTTATGCATTGTACTTTTATAGATTCCACC [XGTACX_site7121] | 11.2 ± 0.96 |
| ACATAAGACACAAATACACACAAAAATATATAACAA [CACACA_site4082] | 10.2 ± 0.29 |
| TACATGATAGATCACACACACATATAAATATATATA [CACACA_site5562] | 9.91 ± 0.18 |
| TAAAATAACTCACAAAGTACAAAAATAAGCATATGA [XGTACX_site7046] | 10.7 ± 0.33 |
| CAAAAATAAAAGAAATGTACAAAAAATAATAAAAAA [XGTACX_site6597] | 10.7 ± 0.27 |
| TAATAAACTTAAAAATGTACATATATTTATTATTAC [XGTACX_site4321] | 11.2 ± 0.74 |
| AAAATTCATAAATACACACACGCACATATATATATA [CACACA_site4227] | 10.3 ± 0.4 |
| GAATATTCAACATAATGTACAAGTATTCATTTCTTT [XGTACX_site7860] | 10.8 ± 0.38 |
| AAGAAAAAGTATCCTCTATCTTTATATAAACTATTA [TGCATGCA_negctrl_site2] | 10.4 ± 0.2 |
| ATGTATATATTTTTATGTACATATTTTTAATTTATA [XGTACX_site2982] | 11.4 ± 0.87 |
| CATACATATACTTTGTGTACATATATATATTATATA [XGTACX_site97] | 11.4 ± 0.78 |
| TAATAAAAAATTAAAAAAAATAAAAATAAAAATAAA [GTGCAC_negctrl_site78] | 9.29 ± 0.18 |

| Sequence | gcPBM binding intensity (ln) |
| --- | --- |
| TTTTTATTTAGCTAAGCATGCTAACGATGACACTTC [TGCATGCA_site79] | 9.84 ± 0.14 |
| TTTATACTTTTAAATTGTACTATAAAAAGGAATACA [XGTACX_site2537] | 11 ± 0.64 |
| AAATATATATTCATGTGTACACACAAAAAAAAATAA [XGTACX_site4552] | 11.6 ± 0.84 |
| AAAAATTTTCAAGTGTGTACATATTTTCATTTAACA [XGTACX_site6186] | 11.4 ± 0.88 |
| AAGAAAATGTATATATGTACATACAATCAAAAGAAG [XGTACX_site3454] | 11.3 ± 0.76 |
| ATTAATAATGAAAAAAAACACACGGTACATTCAAAG [CACACA_site1302] | 10.7 ± 0.4 |
| TAAAATAAAAAAGTAGTACACACTTCACGATATTTT [CACACA_site3896] | 11.6 ± 0.91 |
| TTAAAAGTAAGCAAAGTGCATATAACAAAAGTAAAG | 10.05 ± 0.064 |
| AATATAAAACTTTAGAGTACTTATCATTAAAATATA [XGTACX_site4509] | 11.2 ± 0.76 |
| TTCATTTTCATATATTGTACAAAATTTTATAAGGTT [XGTACX_site4522] | 10.8 ± 0.45 |
| TTGTAAGAAAGACACACACACACATATAAATATGTA [CACACA_site6516] | 10.1 ± 0.24 |
| TATTTAAAATAATGTGCAAAAGAATAAATAAATAAA [TGCATGCA_negctrl_site194] | 10.1 ± 0.13 |
| ATATACACATATACATGTACAAATATATATACACAT [XGTACX_site2986] | 11 ± 0.64 |
| TTACTATTATTATTTTTTATTTTTATTTTATTTATT [TGCATGCA_negctrl_site269] | 9.54 ± 0.25 |
| CACTAAAAGAAACACACACACACACCCATATATATA [CACACA_site4151] | 10.1 ± 0.17 |
| TATATAAGAACTTTTACACACATGAAAATGTAGATA [CACACA_site7711] | 9.96 ± 0.22 |
| TATATATATATATATACACACATACAGATATATATT [CACACA_site4629] | 10.2 ± 0.52 |
| TTTATTTATTTTTGTTGTACACTTGTATATATTATT [XGTACX_site6486] | 11.4 ± 0.8 |
| ATTTTATATACACTTTGTACTTATTTTATTCTTCTT [XGTACX_site4200] | 11.2 ± 0.68 |
| TGTATATAATCGAGTGCACACACAAAAAAAAAGTGA [CACACA_site8417] | 10.6 ± 0.33 |
| TTCATGTCCTATTAATGTACTCTACACACATATAAG [XGTACX_site899] | 11.3 ± 0.9 |
| AAAAAAAAAAAAAAAACACACACATATATATATATA [CACACA_site8571] | 10.2 ± 0.26 |
